Key:
huCD3-His [1] = target: T1, huCD3-His (human); experiment: SPR, huCD3-His immobilised, bispecific as analyte, 1:1 model, pH 7.4
T1 chain: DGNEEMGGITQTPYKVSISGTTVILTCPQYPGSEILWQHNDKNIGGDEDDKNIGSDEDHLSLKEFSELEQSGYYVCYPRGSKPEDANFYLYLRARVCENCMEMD

huHER2-His [2] = target: T2, huHER2-His (human); experiment: SPR, huHer2-His immobilised, bispecific as analyte 0.625-25 nM, pH 7.4, 1:1 fit; low response, about 17 RU at 25 nM
T2 construct: also called Human HER2-His; humHer2

huHER2-His [3] = target: T2, huHER2-His; experiment: SPR, huHER2-His immobilised, bispecific as analyte, 1:1 model, pH 7.4
huCD3-His [4] = target: T1, huCD3-His; experiment: SPR, huCD3-His immobilised, bispecific as analyte 0.625-25 nM, pH 7.4, 1:1 fit
cynoHER2-His [5] = target: cynoHER2-His (cyno); experiment: SPR, cynoHER2-His immobilised, bispecific as analyte, 1:1 model, pH 6.5
[6] = target: recombinant human CD3 (ELISA capture) (human); experiment: pH sandwich ELISA, human CD3 coated, detection with cyno HER2-mouse Fc, pH 6.0; saturation not reached, value estimated
huHER2-His [7] = target: T2, huHER2-His; experiment: SPR, huHER2-His immobilised, bispecific as analyte, 1:1 model, pH 6.0
[8] = target: recombinant human CD3 (ELISA capture) (human); experiment: pH sandwich ELISA, human CD3 coated, detection with human HER2-mouse Fc and anti-mouse HRP, pH 6.0
huCD3-His [9] = target: T1, huCD3-His; experiment: SPR, huCD3-His immobilised, bispecific as analyte 0.625-25 nM, pH 6.0, 1:1 fit
[10] = target: recombinant human CD3 (ELISA capture) (human); experiment: pH sandwich ELISA, human CD3 coated, detection with cyno HER2-mouse Fc; ratio of EC50 at pH 7.4 to pH 6.0
huHER2-His [11] = target: T2, huHER2-His; experiment: SPR, huHER2-His immobilised, bispecific as analyte, 1:1 model, pH 6.5
huCD3-His [12] = target: T1, huCD3-His; experiment: SPR, huCD3-His immobilised, bispecific as analyte, 1:1 model, pH 6.5
huHER2-His [13] = target: T2, huHER2-His; experiment: SPR, huHer2-His immobilised, bispecific as analyte 0.625-25 nM, pH 6.0, 1:1 fit
cynoHER2-His [14] = target: cynoHER2-His (cyno); experiment: SPR, cynoHer2-His immobilised, bispecific as analyte 0.625-25 nM, pH 6.5, 1:1 fit; low response, about 12 RU at 25 nM
huCD3-His [15] = target: T1, huCD3-His; experiment: SPR, huCD3-His immobilised, bispecific as analyte 0.625-25 nM, pH 6.5, 1:1 fit
[16] = target: recombinant human CD3 (ELISA capture) (human); experiment: pH sandwich ELISA, human CD3 coated, detection with cyno HER2-mouse Fc, pH 7.4; saturation not reached, value estimated
huCD3-His [17] = target: T1, huCD3-His; experiment: SPR, huCD3-His immobilised, bispecific as analyte, 1:1 model, pH 6.0
[18] = target: recombinant human CD3 (ELISA capture) (human); experiment: pH sandwich ELISA, human CD3 coated, detection with human HER2-mouse Fc; ratio of EC50 at pH 7.4 to pH 6.0
[19] = target: recombinant human CD3 (ELISA capture) (human); experiment: pH sandwich ELISA, human CD3 coated, detection with human HER2-mouse Fc and anti-mouse HRP, pH 7.4; saturation not reached, value estimated
huCD3-His [20] = target: T1, huCD3-His; experiment: SPR, huCD3-His immobilised, bispecific as analyte 0.625-25 nM, pH 7.4, 1:1 fit
[21] = target: recombinant human CD3 (ELISA capture) (human); experiment: pH sandwich ELISA, human CD3 coated, detection with cyno HER2-mouse Fc, pH 6.0
huCD3-His [22] = target: T1, huCD3-His; experiment: SPR, huCD3-His immobilised, bispecific as analyte 0.625-25 nM, pH 6.5, 1:1 fit
huCD3-His [23] = target: T1, huCD3-His; experiment: SPR, huCD3-His immobilised, bispecific as analyte 0.625-25 nM, pH 6.0, 1:1 fit

B1: CAB HER2-24-06 × CAB CD3-BF19 butterfly bispecific antibody (bispecific antibody, human IgG1, kappa)
heavy: [about 450 residues with a human IgG1 Fc not printed]
light: [about 200 residues not printed]SRSGGGGEVQLVESGGGLVQPGGSLRLSCAASGFTFNTYAMNWVRQAPGKGLEWVARIRSKYNNYATYYADSVKDRFTISRDDSKNSLYLQMNSLKTEDTAVYYCVRHGNFPNSKVSWFQYWGQGTLVTVSSGGSGGSGGSGGSGGQAVVTQEPSLTVSPGGTVTLTCRSSTGAVTTSNYDNWVQQKPGQAPRGLIGGTNKRAPWTPARFSGSLLGGKAALTITGAQAEDEADYYCALWYSNLWVFGGGTKLTVLSR
notes: also called BA-150-24-06-BF19; CAB Her2 × CAB CD3-BF19
huCD3-His [1]
  Kd: 5.57 nM
  koff: 0.00108 s⁻¹
  kon: 193000 M⁻¹ s⁻¹
huHER2-His [2]
  Kd: 18.1 nM
  koff: 0.00118 s⁻¹
  kon: 65000 M⁻¹ s⁻¹
huHER2-His [3]
  Kd: 18.2 nM
  koff: 0.00118 s⁻¹
  kon: 65000 M⁻¹ s⁻¹
huCD3-His [4]
  Kd: 5.57 nM
  koff: 0.00108 s⁻¹
  kon: 193000 M⁻¹ s⁻¹
cynoHER2-His [5]
  kon: 167000 M⁻¹ s⁻¹
[6]
  EC50: ~0.654 µg/mL
huHER2-His [7]
  Kd: 4.8 nM
  koff: 0.0016 s⁻¹
  kon: 333000 M⁻¹ s⁻¹
[8]
  EC50: 0.112 µg/mL
huCD3-His [9]
  Kd: 1.88 nM
  koff: 0.00095 s⁻¹
  kon: 506000 M⁻¹ s⁻¹
[10]
  EC50 ratio pH 7.4/6.0: 1.23
huHER2-His [11]
  Kd: 4.12 nM
  koff: 0.00115 s⁻¹
  kon: 279000 M⁻¹ s⁻¹
huCD3-His [12]
  Kd: 1.96 nM
  koff: 0.000541 s⁻¹
  kon: 276000 M⁻¹ s⁻¹
huHER2-His [13]
  Kd: 4.8 nM
  koff: 0.0016 s⁻¹
  kon: 333000 M⁻¹ s⁻¹
cynoHER2-His [14]
  Kd: 18.7 nM
  koff: 0.00312 s⁻¹
  kon: 166000 M⁻¹ s⁻¹
huCD3-His [15]
  Kd: 1.96 nM
  koff: 0.00054 s⁻¹
  kon: 276000 M⁻¹ s⁻¹
[16]
  EC50: ~0.802 µg/mL
huCD3-His [17]
  Kd: 1.88 nM
  koff: 0.00095 s⁻¹
  kon: 506000 M⁻¹ s⁻¹
[18]
  EC50 ratio pH 7.4/6.0: 17.1
[19]
  EC50: ~1.93 µg/mL

B2: WT HER2 × CAB CD3-BF45 butterfly bispecific antibody (bispecific antibody, human IgG1, kappa)
heavy: [about 450 residues with a human IgG1 Fc not printed]
light: [about 200 residues not printed]SRSGGGGEVQLVESGGGLVQPGGSLRLSCAASGFTFNTYAMNWVRQAPGKGLEWVARIRSKYNNYATYYADSVKDRFTISRDDSKNSLYLQMNSLKTEDTAVYYCVRHSNFGNSKVSWFAYWGQGTLVTVSSGGSGGSGGSGGSGGQAVVTQEPSLTVSPGGTVTLTCRSSAGAVTTSNYDNWVQQKPGQAPRGLIGGTNKRAPWTPARFSGSLLGGKAALTITGAQAEDEADYYCALWYSNLWVFGGGTKLTVLSR
huCD3-His [20]
  Kd: 28.8 nM
  koff: 0.00113 s⁻¹
  kon: 39200 M⁻¹ s⁻¹
huCD3-His [1]
  Kd: 17.1 nM
  koff: 0.00112 s⁻¹
  kon: 65600 M⁻¹ s⁻¹
[21]
  EC50: 0.107 µg/mL
[8]
  EC50: 0.11 µg/mL
[10]
  EC50 ratio pH 7.4/6.0: 7.55
huCD3-His [12]
  Kd: 5.71 nM
  koff: 0.000989 s⁻¹
  kon: 173000 M⁻¹ s⁻¹
huCD3-His [22]
  Kd: 5.71 nM
  koff: 0.000989 s⁻¹
  kon: 173000 M⁻¹ s⁻¹
[16]
  EC50: ~0.807 µg/mL
huCD3-His [17]
  Kd: 1.79 nM
  koff: 0.000679 s⁻¹
  kon: 380000 M⁻¹ s⁻¹
huCD3-His [23]
  Kd: 1.79 nM
  koff: 0.000679 s⁻¹
  kon: 380000 M⁻¹ s⁻¹
[18]
  EC50 ratio pH 7.4/6.0: 14.8
[19]
  EC50: ~1.62 µg/mL

Reference: patent US20230109218A1 (BIOATLA, published 2023)
